# Experimental data taken from PubChem BioAssay AID686978 (National Center for Advancing Translational Sciences (NCATS), 2013).
# Hit rate of the full screen: of about 420,000 compounds, about 64,000 (15%) were called active. Inconclusive means that the source gave no clear call. Such entries were picked first, then a sample of the others. Calls come from the whole dose curve; as a rule, active = well fitted inhibition curve with a large enough effect; inconclusive = small, poorly fitted or top-dose-only effect; inactive = flat fitted curve, though single readings scatter. No potency is given beside an inconclusive call; the fits are too rough.
# Assay: qHTS for Inhibitors of human tyrosyl-DNA phosphodiesterase 1 (TDP1): qHTS in cells in absence of CPT; note: nearly all actives have a fitted effect of over 55% in size
# Conditions: DT40 Tdp1-/- hTDP1 cells, no CPT, ATP luminescence, 48 h; activity change, negative = growth inhibition: at 46.2 µM (top of the series) unless noted
# Outline: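 Camptothecin absent (DMSO only). Human TDP1-complemented DT40 knockout cells, 400 cells/well, 37 °C for minimum 48 hr; ATP measured via CellTiter-Glo, 30 min dark incubation, luminescence.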
# % is set by controls: 0 for no effect and ±100 for the full control effect; potency is the fitted concentration of half-maximal effect; tags give direction and shape of the fitted curve.
SMILES,"activity change, negative = growth inhibition",Potency
Cc1cc(C)n(C(=O)Cn2nc(C(F)F)cc2C)n1,inactive: -5.47%,–
Cc1ccc(Cl)cc1N1CCN(C(=O)c2c(C)oc3ncnc(N4CCCCC4)c23)CC1,–,active: 6.51 µM
COC(=O)C(NC(=O)C(NC(=O)C1CCC(C)CC1)C(C)C)C(C)C (stereo not given),inactive: -22.4%,–
Cc1cccc(N2C(=O)c3ccc(C(=O)Nc4cccc(C(=O)O)c4)cc3C2=O)c1,inactive: -29.4%,–
CC(c1ccccc1)n1cc2c(c1-c1ccccc1Br)c(=O)n(C)c(=O)n2C (stereo not given),–,active: 18.4 µM
Cc1ccc(-c2nnn(CC(=O)N(c3ccccc3F)C(C(=O)NCC3CCCO3)c3c[nH]c4ccccc34)n2)cc1 (stereo not given),–,"inconclusive [inhibitor, single point]"
Nn1c(SCC(=O)Nc2nnc(-c3ccccc3)o2)nnc1C1CC1,inactive: 5.64%,–
COc1ccc(-c2noc(CCC(=O)N3CCC(C)CC3)n2)cc1,inactive: -27.7%,–
O=C(CSc1nc(-c2ccco2)cc(C(F)(F)F)n1)Nc1ccc(C(=O)N2CCOCC2)cc1,–,"inconclusive [inhibitor, partial curve]"
CN1CCN(c2ccc(Cl)cc2NC(=O)c2ccc(S(=O)(=O)N(C)C)cc2)CC1,–,"inconclusive [inhibitor, single point]"
COc1cccc(NC(=O)CCc2c(C)nc3nc(CNC(=O)c4cccc(F)c4)nn3c2C)c1,–,"inconclusive [inhibitor, partial curve]"
CC(=O)N1CCC2(CCCN(c3ccc(-c4ccccc4)cc3)C2)CC1,–,active: 16.4 µM
CC1O[C@@H](Oc2c(-c3ccc(O)c(O)c3)oc3cc(O)cc(O)c3c2=O)C(O)C(O)C1O (stereo not given in full),inactive: -21.7%,–
COc1ccc(Oc2ncc3nc(-c4ccc(F)cc4)c(=O)n(C4CC4)c3n2)cc1,–,"inconclusive [inhibitor, partial curve, poor fit]"
CC1CN(C(=O)c2ccc(Br)c(S(=O)(=O)N3CCOCC3)c2)CC(C)O1 (stereo not given),inactive: 0.101%,–
C=CCc1cc(/C=N\NC(=O)CSc2nnc(CCCc3ccc(OC)c(C)c3)o2)cc(OC)c1O,inconclusive: -34.1% [inhibitor],–
CCN1CCN(c2ccc(S(=O)(=O)N3CCCCC3)cc2NC(=O)c2cccc(NC(C)=O)c2)CC1,–,"inconclusive [inhibitor, single point]"
N[C@@H](Cc1ccc(F)cc1)C(=O)O,–,"inconclusive [inhibitor, single point]"
CCN(CC)c1ccc(C(=O)N/N=C/c2ccc(OC)cc2OC)cc1,–,"inconclusive [inhibitor, single point]"
COc1ccc(-c2cc(-c3ccc(C)cc3)n[nH]2)c(O)c1,–,"inconclusive [inhibitor, single point]"
